{"source": "paper doi:10.1101/2022.10.03.510647", "about": "(bioRxiv, 2022)", "binders": {"B1": {"name": "C/EBPα^R35A-Flag (natural protein)", "chain": "not shown"}}, "molecular_target": "PU.1 (UniProt P17433 1-272)", "assay": "co-IP", "data": [{"binder": "B1", "values": [{"measurement": "fold change of the co-precipitate against C/EBPα^WT", "value": "~2", "unit": "fold"}]}]}
